Reference: paper PMC4336329 (PLoS ONE, 2015)
Among all 310,000 compounds or so, about 14,000 (4.5%) showed an effect of 50% or more. The effect is printed as a negative number. This is one part of the list.

The compounds below were run against human ether-à-go-go-related gene (hERG) potassium channel (human, UniProt Q12809) (assay: primary screen, population patch clamp on CHO cells stably expressing hERG).
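Note: peak tail current of the secondary pulse compared with the same well before compound.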

human ether-à-go-go-related gene (hERG) potassium channel, sequence (Q12809 whole entry, looked up): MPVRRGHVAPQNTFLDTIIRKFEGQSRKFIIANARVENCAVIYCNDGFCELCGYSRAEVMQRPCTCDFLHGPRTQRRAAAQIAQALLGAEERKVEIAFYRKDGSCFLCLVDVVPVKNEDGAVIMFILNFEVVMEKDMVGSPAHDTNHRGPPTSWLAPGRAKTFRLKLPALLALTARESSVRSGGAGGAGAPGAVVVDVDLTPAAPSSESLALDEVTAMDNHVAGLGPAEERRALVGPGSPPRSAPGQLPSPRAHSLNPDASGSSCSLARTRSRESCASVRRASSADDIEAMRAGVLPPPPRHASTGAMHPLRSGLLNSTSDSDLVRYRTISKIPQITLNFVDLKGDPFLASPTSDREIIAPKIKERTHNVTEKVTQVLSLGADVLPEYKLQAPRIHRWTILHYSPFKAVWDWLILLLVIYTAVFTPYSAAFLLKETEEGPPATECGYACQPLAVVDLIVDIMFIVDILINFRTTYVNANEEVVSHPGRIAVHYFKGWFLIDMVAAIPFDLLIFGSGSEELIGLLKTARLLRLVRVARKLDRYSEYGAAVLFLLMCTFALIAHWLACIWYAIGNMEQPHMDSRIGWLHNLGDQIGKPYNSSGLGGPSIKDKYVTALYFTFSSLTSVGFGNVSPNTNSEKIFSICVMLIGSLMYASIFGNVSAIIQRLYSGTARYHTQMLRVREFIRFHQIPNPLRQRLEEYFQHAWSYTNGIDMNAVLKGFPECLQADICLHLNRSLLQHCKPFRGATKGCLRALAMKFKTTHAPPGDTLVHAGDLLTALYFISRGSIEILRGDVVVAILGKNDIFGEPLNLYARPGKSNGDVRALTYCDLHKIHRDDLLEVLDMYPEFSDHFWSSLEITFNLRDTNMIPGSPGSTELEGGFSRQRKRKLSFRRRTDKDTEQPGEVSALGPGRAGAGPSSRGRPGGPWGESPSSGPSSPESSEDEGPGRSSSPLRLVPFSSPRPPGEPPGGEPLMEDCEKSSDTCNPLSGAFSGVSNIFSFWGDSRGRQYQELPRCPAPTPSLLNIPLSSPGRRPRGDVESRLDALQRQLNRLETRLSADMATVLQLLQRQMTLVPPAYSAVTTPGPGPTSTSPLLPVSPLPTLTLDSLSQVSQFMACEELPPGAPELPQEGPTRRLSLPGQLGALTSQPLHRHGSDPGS

Point of comparison: O=C(O)C(=O)O.OCc1ccccc1OCCCN1CCC(Cc2ccccc2)CC1, “hERG current change (%, negative = inhibition) at 10uM” value -75%. Against it:
- Cc1ccc(OCc2cc(C(=O)NC(C)Cc3cnccn3)no2)cc1C (centres unmarked) — higher, 0.149%
- Cc1nn(C)c(C)c1Sc1ccc(Br)cc1 — higher, 7.38%
- CCCC(=O)NCCCCNC(=O)CCC — higher, 5.91%
- O=C(NNC(=O)c1ccncc1)Nc1ccccc1 — higher, 8.3%
- Cc1ccc(NCc2ccccc2O)c(C)c1 — higher, 24.8%
- CCOC(=O)c1nn(-c2ccccc2C)c2nc(Nc3ccccc3)cc(=O)n12 — higher, -29.9%
- COc1ccc(NC(=O)C(c2ccccn2)N(C(C)=O)c2ccc(C)cc2)cc1 (centres unmarked) — higher, 4.75%
- COc1ccc(-c2[nH]ncc2C=O)cc1OC — higher, -24.8%
- O=C(Cn1c(NCCCCl)nc2ccccc21)c1ccccc1.[Cl-] — higher, -31.1%
- O=C(CC1C(=O)NCCN1CC1CCCCC1)NCCCN1CCOCC1 (centres unmarked) — higher, 25.9%
- O=C(CCNC(=O)c1ccc(Cl)cc1)NCCC1=CCCCC1 — higher, -7.49%
- CCOc1cccc(C(=O)N2CCCCC2c2cccnc2)c1 (centres unmarked) — higher, -11.2%
- C/C(N)=C(/C#N)C(=O)COC(=O)c1ccc(C#N)cc1 — higher, -6.61%
- CCCOc1cccc(C(=O)O)c1 — higher, -3.68%
- CN(C)/C=C/C(=O)c1ccccc1F — higher, 0.616%
- COc1nc2ccccc2nc1OC — higher, 3.43%
- N#C/C(=C/c1ccc2c(c1)OCO2)C(=O)NCCc1c[nH]c2ccccc12 — higher, 8.49%
- Nc1ccc2nc(-c3cccnc3)[nH]c2c1 — higher, 4.72%
- O=C(NCc1cccnc1)c1cccc(C(F)(F)F)c1 — higher, 12.9%
- CCCC(C)C1(CC)C(=O)NC(=Nc2ccc(OC)cc2)NC1=O (centres unmarked) — higher, 1.1%
- Cc1cc(OCC(=O)NC2CCCCC2)ccc1Cl — higher, 4.1%
- CC(=O)c1csc(COc2ccc(Cl)cc2)n1 — higher, 11.9%
- Cc1ccc(CSCC(=O)Nc2ccc3c(c2)OCO3)cc1 — higher, -14.5%
- CC(=O)c1ccc(-c2ccc(C(=O)N3CCC(C(N)=O)CC3)o2)cc1 — higher, -5.3%
- Cc1ccc(OC(=O)c2ccc(C)c([N+](=O)[O-])c2)cn1 — higher, 20.9%
- COC(=O)c1ccc(-n2cncn2)c(F)c1 — higher, 8.06%
- COc1ccccc1NC(=O)CN1CCOCC1 — higher, 15.7%
- CCOCCn1cnc2sc(C(=O)NCC(=O)OCC)c(C)c2c1=O — higher, -3.75%
